Data as given in patent US20170306038A1, “COMPOSITIONS AND METHODS OF USE FOR AUGMENTED IMMUNE RESPONSE AND CANCER THERAPY” (priority 2014, published 2017).

Experiments:
[1] = test system: rodent GITR; assay: ELISA binding to GITR extracellular domain, rodent; parameters: species or system rat, mouse
Experimental: (§1) Binding of the MABs to GITR from various species, various alanine mutant constructs or GITR extracellular domain—was assessed using a 384-well plate was coated with rat, mouse, human or cyno GITR extracellular domain (ECD) at 50 ng per well and incubated overnight at 4° C. The plate was blocked with a solution of 1% BSA in PBS for one hour at room temperature and then rinsed three times with PBST. The MAB was then diluted to 0.5 μg/mL or 1 μg/mL in PBS and 20 μL was added to each well. The plate was incubated for 1 hour at room temperature and then washed three times with PBST. Anti-human kappa antibody (Sigma #A7164), anti-human gamma antibody (Jackson Immunoresearch 109-036-098), goat anti-mouse antibody (Jackson ImmunoResearch 115-035-071) conjugated to HRP was diluted 1:5000 in Blocking Buffer (25 μL) and added to each well, or a hrp conjugated HIS antibody (QIAGEN 1014992) diluted 1:1000 in Blocking Buffer was added. The plate was incubated for 1 hour at room temperature, and then washed six times with PBST. 25 μL of SureBlue TMB (KPL 52-00-02) substrate was added to each well and the plate was incubated for about 10 min at room temperature. Plates were read at 650 nm in a spectrophotometer.

[2] = biological target: T1, human GITR (Homo sapiens, UniProt Q9Y5U5); assay: ELISA binding to GITR extracellular domain, human
T1 construct: coated with rat, mouse, human or cyno GITR extracellular domain (ECD) at 50 ng per well
T1 sequence (Q9Y5U5 26-162 limits assumed): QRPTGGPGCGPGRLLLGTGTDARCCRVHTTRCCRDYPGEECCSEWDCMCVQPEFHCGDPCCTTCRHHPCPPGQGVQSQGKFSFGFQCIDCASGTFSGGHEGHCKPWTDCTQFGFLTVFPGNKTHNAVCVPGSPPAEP
Experimental: as §1

[3] = test system: Colon26 tumors; assay: Colon26 tumor model in hGITR-hGITRL double knock-in mice; type: in vivo, mouse
Experimental: Co-stimulatory activity of MABs on T cells was also measured using an ELISpot method for detection of IFNg. Briefly, ELISPOT plates (Millipore MSIPS4510) were prepared by coating with 70% ethanol for 2 minutes followed by PBS wash and incubation overnight with 50 ug IFNg monoclonal antibody in PBS (Mabtech 3321-3). Purified CD8+ T cells were isolated from spleens of Vehicle or MAB7-treated mice 15-days post-dose. T cells were plated into the coated ELISPOT plates at 0.25×10̂6 cells per well in CTL media (CTL Test-medium (CTL CTLT-005), 1 mM Hepes (Mediatech MT25-060-C1), 2 mM L-glutamine (Mediatech MT25-005-C1), 1 mM sodium pyruvate (Mediatech MT25-000-C1), 100 uM MEM Non-essential amino acids (Mediatech MT25-025-C1), 66 uM 2-Mercaptoethanol (Gibco 21985-023), 100 U/mL Pten/Strep (Gibco 10378016). Colon26 cells were treated with 10% ConA sup (BD Biosciences 354115) at 37° C. for 48 hours to upregulate MHC Class II expression and washed with CTL media prior to addition to T-cells. Colon26 tumor cells (20,000/well) were added to CTLs and incubated at 37° C. for 24-48 hours. Plates were then washed with 0.05% Tween-20/PBS and 10 ug of biotinylated anti-IFNg Mab (Mabtech R4-6A2-biotin) was added to each well and incubated for 2 hours at 37° C. Plates were then washed with 0.05% Tween-20/PBS and Vectastain ABC solution (Vector Labs PK6100) was added to each well and incubated for 1 hour at room temperature. Cells were then washed with 0.05% Tween-20/PBS and AEC substrate, prepared according to manufacturer's protocol (Sigma A6926) was added to each well and incubated for 4 minutes at room temperature. Plates were then rinsed with tap water, dried and stored in the dark for 24 hours prior to reading.
Flow cytometry: For surface markers, cells were stained with anti-CD19 (BD Biosciences 562291), anti-CD8 (Biolegend 100725), anti-CD4 (eBioscience 25-0041), anti-CD69 (BD Biosciences 561238), anti-hGITR (Miltenyi Biotech 130-092-895) and anti-hIgG (Life Sciences A-10631) antibodies for 30 minutes at 4C. For intracellular staining, following incubation with cell surface antibodies, cells were washed, fixed and permeabliized with FOXP3 Fix/Perm buffer (Biolegend 421403) according to manufacture's protocol and incubated with anti-phospho-IKKa/b antibody (Cell Signaling 2697) or anti-FOXP3 antibody (eBioscience 50-4774-42) for 30 minutes at 4C. Cells were read on a BD LSRFortessa cytometer using BD FACSDiva software (BD Biosciences) and flow data was analyzed using FlowJo software (TreeStar Inc.).
In vivo tumor models. The Colon26 murine colon carcinoma cell line was obtained from the Division of Cancer Treatment and Diagnosis at the National Cancer Institute (vial: 0507238). Murine Colon26 carcinoma cells were cultured in RPMI 1640 medium (HyClone SH30027.02) supplemented with 10% FBS (Gibco 10099-141), 10 mM HEPES (Gibco 15630-080) and 1 mM sodium pyruvate (Gibco 11360-070). 8-10 week old female hGITR-hGITRL knock-in mice were injected subcutaneously with 0.5×10̂6 Colon26 cells in 100 uL of RPMI in the flank. Tumors were measured using digital calipers and tumor volume calculated using the equation (L×W^2)/2. When tumors reached an average size of 180 mm^3, mice were randomized and dosed with a single intraperitoneal injection of vehicle (PBS) or therapeutic antibody (15 mg/kg) in 200 uL PBS. Mice were sacrificed and tumors collected for analysis by flow cytometry 7 days after dosing with therapeutic antibodies. All animal experiments were performed in an AAALAC accredited facility using IACUC approved protocols. Statistical analysis was performed in Prism software using student's t-test with two-tailed 95% confidence interval or One-way ANOVA with Tukey correction.

[4] = 15-days post-dose, normalized to tumor size

B1: MAB7: MAB4 variant with glycation site KH changed to RH; heavy chain SEQ ID NO:100, light chain SEQ ID NO:66 (antibody)
heavy: EVQLVESGGGLVQSGGSLRLSCAASGFSLSSYGVDWVRQAPGKGLEWVGVIWGGGGTYYASSLMGRFTISRDNSKNTLYLQMNSLRAEDTAVYYCARHAYGHDGGFAMDYWGQGTLVTVSSASTKGPSVFPLAPSSKSTSGGTAALGCLVKDYFPEPVTVSWNSGALTSGVHTFPAVLQSSGLYSLSSVVTVPSSSLGTQTYICNVNHKPSNTKVDKRV[human IgG1 Fc not printed]
light: EIVMTQSPATLSVSPGERATLSCRASESVSSNVAWYQQRPGQAPRLLIYGASNRATGIPARFSGSGSGTDFTLTISRLEPEDFAVYYCGQSYSYPFTFGQGTKLEIKRTVAAPSVFIFPPSDEQLKSGTASVVCLLNNFYPREAKVQWKVDNALQSGNSQESVTEQDSKDSTYSLSSTLTLSKADYEKHKVYACEVTHQGLSSPVTKSFNRGEC
With B1 the “binding to rodent GITR in ELISA” value [1] was “not murine GITR”, the “binding to human GITR in ELISA” value [2] was “binding human” and the Tregs in tumor ([3]; 3-days post-dose) was “Tregs are reduced”. For the same molecule, the “activated CD8+ T cells in tumor site” value [3, 4] was “increased activated CD8+ T cells”, the “lymphocytes in tumor site” value [3, 4] was “increased lymphocytes” and the “growth of Colon26 tumors (tumor volume)” value ([3]; single dose 15 mg/kg intraperitoneal, versus vehicle) was “delayed growth of Colon26 tumors”. The “tumor specific IFNg response of CD8+ T cells (ELISPOT)” value ([3]; splenic CD8+ T cells incubated with Colon26 cells ex-vivo, 15-days post-dose) was “increased tumor specific IFNg response” and the “cell surface hGITR on Tregulatory and Thelper cells” value ([3]; whole blood and tumors, three days post treatment) was “decreased hGITR”.
